# Experimental data from PubChem BioAssay (Tox21).
# Inconclusive results are not listed. Unless noted, the call rests on the fitted dose curve; in most records, active means well fitted curve in the direction sought with a large enough effect in the repeat runs; inconclusive means weak or mixed curves; inactive means no such curve, though single readings can be large; an effect the other way counts as inactive or inconclusive. The source holds several records for some structures; these can differ, active in one and inactive in another. For part of its entries the source gives two or more results. The list is limited to them. An entry can have further records. Values given together are repeats in other runs, samples, wells, individuals or studies. A tag in brackets gives the origin of a value. Letters hold for one entry only.
# What was measured:
# [1] = qHTS assay to identify small molecule antagonists of the androgen receptor (AR) signaling pathway using the MDA cell line - cell viability counter screen (AID 743041; further: nearly all actives have a fitted effect of over 45% in size)
# Description: National Center for Advancing Translational Sciences [NCATS]
# NIH Chemical Genomics Center [NCGC]
# U.S. Environmental Protection Agency [EPA]
# National Institutes of Environmental Health Sciences [NIEHS]
# National Toxicology Program [NTP]
# U.S. Food and Drug Administration [FDA]
# Androgen receptor (AR), a nuclear hormone receptor, plays a critical role in AR-dependent prostate cancer and other androgen related diseases. Endocrine disrupting chemicals (EDCs) and their interactions with steroid hormone receptors like AR may cause disruption of normal endocrine function as well as interfere with metabolic homeostasis, reproduction, developmental and behavioral functions. To identify the compounds that inhibit AR signaling, MDA-kb2 AR-luc cell line (from ATCC, deposited by Wilson et al.) was used to screen the Tox21 10K compound library. […]
# MDA-kb2 AR-luc cells were dispensed at 3,000 cells/4 uL/well of culture medium into white wall/solid-bottom 1536-well plates using a Multidrop Combi (ThermoFisher Scientific, Waltham, MA) dispenser. […] The fluorescence intensity was quantified on a ViewLux plate reader (PerkinElmer, Shelton, CT) following 30 min incubation at 37C and 0% CO2.
# [2] = qHTS assay to identify small molecule antagonists of the glucocorticoid receptor (GR) signaling pathway - cell viability counter screen (AID 720693); further: nearly all actives have a fitted effect of over 55% in size
# [3] = qHTS assay to identify small molecule agonists of the constitutive androstane receptor (CAR) signaling pathway - cell viability counter screen (AID 1224836); further: nearly all actives have a fitted effect of over 45% in size
# Method in brief: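 Cells were seeded and incubated 4 hrs. Compounds were added across 15 concentrations together with PK11195 at 0.75 uM final. Plates were incubated 23 hrs at 37 C. CellTiter-Fluor was added and fluorescence measured.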
# [4] = qHTS assay to identify small molecule antagonists of the estrogen receptor alpha (ER-alpha) signaling pathway using the BG1 cell line in the presence of 0.1 nM 17-beta-estradiol - cell viability counter screen (AID 1259241); further: nearly all actives have a fitted effect of over 40% in size
# Method in brief: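 Cells were plated and left 24 hr, compounds in DMSO were pinned in, 17beta-estradiol was added to 0.1 nM final, and after 22 hr CellTiter-Fluor reagent was added for 30 min before fluorescence was read.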
# [5] = qHTS assay to identify small molecule antagonists of the thyroid receptor (TR) signaling pathway (AID 743065); further: nearly all actives have a fitted effect of over 55% in size
# Method in brief: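 Antagonism measured as loss of luciferase signal in GH3 cells stably carrying a TRE-luciferase reporter, co-treated with compound and T3 (1 nM final) for 23.5 h at 37 C. Viability was read in the same well by CellTiter-Fluor.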
# [6] = qHTS assay to identify small molecule antagonists of the constitutive androstane receptor (CAR) signaling pathway - cell viability counter screen (AID 1224837); further: nearly all actives have a fitted effect of over 45% in size
# Method in brief: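 Read-out: CellTiter-Fluor fluorescence after 23 hr at 37 C/5% CO2. Cells: HepG2 double-stable for hCAR and CYP2B6-2.2kb. Compounds tested at 15 concentrations in the presence of CITCO, final concentration 50 nM.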
# [7] = qHTS assay to identify small molecule antagonists of the progesterone receptor (PR) signaling pathway - cell viability counter screen (AID 1346798); further: nearly all actives have a fitted effect of over 50% in size
# Method in brief: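 Counter screen for cytotoxicity: viability of PR-UAS-bla HEK293T cells was measured with CellTiter-Glo luminescence following 16 hr compound exposure in the presence of R5020.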
# [8] = A CellTox Green Cytotoxicity Assay to monitor cytotoxicity in HEK293 cells - 24 hour (AID 1224875); further: nearly all actives have a fitted effect of over 45% in size
# Method in brief: (§1)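 Read-out: fluorescence of a cell-impermeant cyanine dye staining DNA of dead cells, proportional to cytotoxicity. HEK293, 600 cells/well with reagent, compound (23 nL DMSO) added after 5 h; reads at 0, 8, 16, 24, 32, 40 h.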
# [9] = A CellTox Green Cytotoxicity Assay to monitor cytotoxicity in HEK293 cells - 16 hour (AID 1224888); further: nearly all actives have a fitted effect of over 35% in size
# Method in brief: as §1
# [10] = qHTS assay for small molecules that induce genotoxicity in human embryonic kidney cells expressing luciferase-tagged ATAD5 - cell viability (AID 651634; calls by dose curve; further: nearly all actives have a fitted effect of over 25% in size)
# Method in brief: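 HEK293T ATAD5-luc cells, 2,000/well; compound 15.5 hr, 37C/5% CO2; CellTiter-Fluor 30 min, 37C; fluorescence read.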
# Potency means the concentration at half of the fitted maximal effect.
smiles,measurement,setting,value
O=[N+]([O-])c1cc(N(CCO)CCO)ccc1NCCO,Potency,[1],active: 48.5 µM [sample A] and inactive [sample B]
C=C(C)C(=O)OCCC[Si](OC)(OC)OC,Potency,[2],inactive [sample A] and active: 12.3 µM [sample B]
Cc1cc(O)c2c(c1)C(=O)c1cc(O)cc(O)c1C2=O,Potency,[3],inactive [sample A] and active: 54.5 µM [sample B]
same,Potency,[4],inactive [sample A] and active: 21.7 µM [sample B]
CC1=C(/C=C/C(C)=C/C=C/C(C)=C/CO)C(C)(C)CCC1,Potency,[5],inactive [sample A] and active: 61.9 µM [sample B]
COC(=O)c1ccc(C(=O)OC)cc1,Potency,[3],active: 17.5 µM [sample A] and inactive [sample B]
same,Potency,[6],active: 12.4 µM [sample A] and inactive [sample B]
same,Potency,[4],active: 22 µM [sample A] and inactive [sample B]
same,Potency,[7],active: 7.8 µM [sample A] and inactive [sample B]
C=C1CC[C@H](O)CC1=C/C=C1\CCC[C@]2(C)[C@@H]([C@H](C)/C=C/[C@H](C)C(C)C)CC[C@@H]12,Potency,[2],inactive [sample A] and active: 48.5 µM [sample B]
O=C1N=C(O)CN1/N=C/c1ccc(-c2ccc([N+](=O)[O-])cc2)o1,Potency,[1],inactive [sample A] and active: 27.3 µM [sample B]
C=C(C)C(=O)OCC(CC)(COC(=O)C(=C)C)COC(=O)C(=C)C,Potency,[8],inactive [sample A] and active: 38.2 µM [sample B]
same,Potency,[9],inactive [sample A] and active: 38.2 µM [sample B]
CCCCCCOC(C)=O,Potency,[7],inactive [sample A] and active: 19.3 µM [sample B]
OCC#CCO,Potency,[5],inactive [sample A] and active: 27.3 µM [sample B]
CCCCC(CC)COC(=O)CCCCCCCC(=O)OCC(CC)CCCC (stereo not given),Potency,[3],active: 19.3 µM [sample A] and inactive [sample B]
same,Potency,[6],active: 30.6 µM [sample A] and inactive [sample B]
same,Potency,[8],active: 54.9 µM [sample A] and inactive [sample B]
same,Potency,[9],active: 54.9 µM [sample A] and inactive [sample B]
same,Potency,[4],active: 30.6 µM [sample A] and inactive [sample B]
same,Potency,[7],active: 17.2 µM [sample A] and inactive [sample B]
CCCCC/C=C\C/C=C\CCCCCCCC(=O)OC,Potency,[5],inactive [sample A] and active: 54.5 µM [sample B]
CS(=O)(=O)Nc1ccc([N+](=O)[O-])cc1Oc1ccccc1,Potency,[3],active: 48.6 µM [sample A] and inactive [sample B]
Oc1c(Cl)cc(Cl)c(Cl)c1Cl,Potency,[10],active: 53.3 µM [sample A] and inactive [sample B]
c1ccc2[nH]cnc2c1,Potency,[7],active: 2.16 µM [sample A] and inactive [sample B]
